Laboratory results taken from PMC9911399, “Two distinct binding modes provide the RNA-binding protein RbFox with extraordinary sequence specificity”.
Numbering of substitutions follows the chain as printed; changes in the protein carry UniProt numbers. The list shows a part of the results.

B1: UACUUUG (DNA:RNA)
RNA: GGGAGACCGGAAUUCAGAUUGUCCUACUUUGUUAAAUCCCGUCGUAGCCACCA
DNA 1: CAATCTGAATTCCGGTCTCCC
DNA 2: TGGTGGCTACGACGGGATT
B2: GCUCGCU (DNA:RNA)
RNA: GGGAGACCGGAAUUCAGAUUGUCCGCUCGCUUUAAAUCCCGUCGUAGCCACCA
DNA 1: CAATCTGAATTCCGGTCTCCC
DNA 2: TGGTGGCTACGACGGGATT
B3: ACCACCA (DNA:RNA)
RNA: B2 RNA with G25A, U27C, C28A, G29C, U31A
DNA 1: CAATCTGAATTCCGGTCTCCC
DNA 2: TGGTGGCTACGACGGGATT
B4: CCCUGCC (DNA:RNA)
RNA: B2 RNA with G25C, U27C, C28U, U31C
DNA 1: CAATCTGAATTCCGGTCTCCC
DNA 2: TGGTGGCTACGACGGGATT
B5: UUAACGU (DNA:RNA)
RNA: B2 RNA with G25U, C26U, U27A, C28A, G29C, C30G
DNA 1: CAATCTGAATTCCGGTCTCCC
DNA 2: TGGTGGCTACGACGGGATT
B6: GGUGCCU (DNA:RNA)
RNA: B2 RNA with C26G, C28G, G29C
DNA 1: CAATCTGAATTCCGGTCTCCC
DNA 2: TGGTGGCTACGACGGGATT
B7: GGCGUUC (DNA:RNA)
RNA: B1 RNA with U25G, A26G, U28G, G31C
DNA 1: CAATCTGAATTCCGGTCTCCC
DNA 2: TGGTGGCTACGACGGGATT
B8: GUAGUUC (DNA:RNA)
RNA: B1 RNA with U25G, A26U, C27A, U28G, G31C
DNA 1: CAATCTGAATTCCGGTCTCCC
DNA 2: TGGTGGCTACGACGGGATT
B9: GCCCUAU (DNA:RNA)
RNA: B2 RNA with U27C, G29U, C30A
DNA 1: CAATCTGAATTCCGGTCTCCC
DNA 2: TGGTGGCTACGACGGGATT
B10: AGUCAAG (DNA:RNA)
RNA: B2 RNA with G25A, C26G, G29A, C30A, U31G
DNA 1: CAATCTGAATTCCGGTCTCCC
DNA 2: TGGTGGCTACGACGGGATT
B11: GUGUUAU (DNA:RNA)
RNA: B2 RNA with C26U, U27G, C28U, G29U, C30A
DNA 1: CAATCTGAATTCCGGTCTCCC
DNA 2: TGGTGGCTACGACGGGATT
B12: AAAAAUC (DNA:RNA)
RNA: B1 RNA with U25A, C27A, U28A, U29A, G31C
DNA 1: CAATCTGAATTCCGGTCTCCC
DNA 2: TGGTGGCTACGACGGGATT
B13: GGCCAGU (DNA:RNA)
RNA: B2 RNA with C26G, U27C, G29A, C30G
DNA 1: CAATCTGAATTCCGGTCTCCC
DNA 2: TGGTGGCTACGACGGGATT
B14: AUCACUC (DNA:RNA)
RNA: B1 RNA with U25A, A26U, U28A, U29C, G31C
DNA 1: CAATCTGAATTCCGGTCTCCC
DNA 2: TGGTGGCTACGACGGGATT
B15: GGUGCGA (DNA:RNA)
RNA: B2 RNA with C26G, C28G, G29C, C30G, U31A
DNA 1: CAATCTGAATTCCGGTCTCCC
DNA 2: TGGTGGCTACGACGGGATT
B16: UGGGACA (DNA:RNA)
RNA: B2 RNA with G25U, C26G, U27G, C28G, G29A, U31A
DNA 1: CAATCTGAATTCCGGTCTCCC
DNA 2: TGGTGGCTACGACGGGATT
B17: UACCCCG (DNA:RNA)
RNA: B1 RNA with U28C, U29C, U30C
DNA 1: CAATCTGAATTCCGGTCTCCC
DNA 2: TGGTGGCTACGACGGGATT
B18: GGACCAC (DNA:RNA)
RNA: B2 RNA with C26G, U27A, G29C, C30A, U31C
DNA 1: CAATCTGAATTCCGGTCTCCC
DNA 2: TGGTGGCTACGACGGGATT
B19: GCACUUA (DNA:RNA)
RNA: B2 RNA with U27A, G29U, C30U, U31A
DNA 1: CAATCTGAATTCCGGTCTCCC
DNA 2: TGGTGGCTACGACGGGATT
B20: CCGAUGA (DNA:RNA)
RNA: B2 RNA with G25C, U27G, C28A, G29U, C30G, U31A
DNA 1: CAATCTGAATTCCGGTCTCCC
DNA 2: TGGTGGCTACGACGGGATT
B21: ACCCUAA (DNA:RNA)
RNA: B2 RNA with G25A, U27C, G29U, C30A, U31A
DNA 1: CAATCTGAATTCCGGTCTCCC
DNA 2: TGGTGGCTACGACGGGATT
B22: ACCUGAU (DNA:RNA)
RNA: B2 RNA with G25A, U27C, C28U, C30A
DNA 1: CAATCTGAATTCCGGTCTCCC
DNA 2: TGGTGGCTACGACGGGATT
B23: CAGAAUG (DNA:RNA)
RNA: B1 RNA with U25C, C27G, U28A, U29A
DNA 1: CAATCTGAATTCCGGTCTCCC
DNA 2: TGGTGGCTACGACGGGATT
B24: GCUGGCG (DNA:RNA)
RNA: B2 RNA with C28G, U31G
DNA 1: CAATCTGAATTCCGGTCTCCC
DNA 2: TGGTGGCTACGACGGGATT
B25: CAUAUGA (DNA:RNA)
RNA: B1 RNA with U25C, C27U, U28A, U30G, G31A
DNA 1: CAATCTGAATTCCGGTCTCCC
DNA 2: TGGTGGCTACGACGGGATT
B26: ACUGUAC (DNA:RNA)
RNA: B2 RNA with G25A, C28G, G29U, C30A, U31C
DNA 1: CAATCTGAATTCCGGTCTCCC
DNA 2: TGGTGGCTACGACGGGATT
B27: CAGGUUG (DNA:RNA)
RNA: B1 RNA with U25C, C27G, U28G
DNA 1: CAATCTGAATTCCGGTCTCCC
DNA 2: TGGTGGCTACGACGGGATT
B28: GUGUCCA (DNA:RNA)
RNA: B2 RNA with C26U, U27G, C28U, G29C, U31A
DNA 1: CAATCTGAATTCCGGTCTCCC
DNA 2: TGGTGGCTACGACGGGATT
B29: CGAAACC (DNA:RNA)
RNA: B2 RNA with G25C, C26G, U27A, C28A, G29A, U31C
DNA 1: CAATCTGAATTCCGGTCTCCC
DNA 2: TGGTGGCTACGACGGGATT
B30: UCACUCA (DNA:RNA)
RNA: B2 RNA with G25U, U27A, G29U, U31A
DNA 1: CAATCTGAATTCCGGTCTCCC
DNA 2: TGGTGGCTACGACGGGATT
B31: CACAACG (DNA:RNA)
RNA: B1 RNA with U25C, U28A, U29A, U30C
DNA 1: CAATCTGAATTCCGGTCTCCC
DNA 2: TGGTGGCTACGACGGGATT

target: T1, RBFOX1 RRM (Homo sapiens, UniProt Q9NWB1 109-208); test: EMSA; HiTS-Eq, 1 nM pool, 10 min; buffer printed only for the single-RNA assays: 10 mM Tris pH 7.5, 150 mM NaCl, 3.4 mM EDTA, 0.001% NP-40, 30 C; conditions: tags: His6 N-terminal (pET28a); label: 5' 32P
T1 sequence: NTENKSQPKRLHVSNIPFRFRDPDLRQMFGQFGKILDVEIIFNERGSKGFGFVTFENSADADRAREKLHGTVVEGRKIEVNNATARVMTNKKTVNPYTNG
Method in brief: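 These values rest on relative association constants, computed from read-count changes of each RNA species versus the control reaction and normalised to the cognate motif. Reads came from free RNA recovered by 8% native PAGE after purified RbFox RRM (wild type or mutant) at increasing concentrations was equilibrated for 10 min in 50 µL with 1 nM of a 5′-radiolabelled pool with 7 randomized nucleotides and DNA-annealed flanks.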

Row | Binder | binding signal
1 | B1 | 0.0222 KA relative to UGCAUGU
2 | B2 | 0.0215 KA relative to UGCAUGU
3 | B3 | 0.00167 KA relative to UGCAUGU
4 | B4 | 0.00271 KA relative to UGCAUGU
5 | B5 | 0.00938 KA relative to UGCAUGU
6 | B6 | 0.0102 KA relative to UGCAUGU
7 | B7 | 0.0182 KA relative to UGCAUGU
8 | B8 | 0.0153 KA relative to UGCAUGU
9 | B9 | 0.00858 KA relative to UGCAUGU
10 | B10 | 0.00432 KA relative to UGCAUGU
11 | B11 | 0.00996 KA relative to UGCAUGU
12 | B12 | 0.000917 KA relative to UGCAUGU
13 | B13 | 0.0163 KA relative to UGCAUGU
14 | B14 | 0.000499 KA relative to UGCAUGU
15 | B15 | 0.00929 KA relative to UGCAUGU
16 | B16 | 0.0078 KA relative to UGCAUGU

Row | Binder | binding signal
17 | B17 | 0.00502 KA relative to UGCAUGU
18 | B18 | 0.00949 KA relative to UGCAUGU
19 | B19 | 0.00566 KA relative to UGCAUGU
20 | B20 | 0.016 KA relative to UGCAUGU
21 | B21 | 0.00202 KA relative to UGCAUGU
22 | B22 | 0.00655 KA relative to UGCAUGU
23 | B23 | 0.0213 KA relative to UGCAUGU
24 | B24 | 0.0219 KA relative to UGCAUGU
25 | B25 | 0.00465 KA relative to UGCAUGU
26 | B26 | 0.00505 KA relative to UGCAUGU
27 | B27 | 0.0146 KA relative to UGCAUGU
28 | B28 | 0.00816 KA relative to UGCAUGU
29 | B29 | 0.00426 KA relative to UGCAUGU
30 | B30 | 0.003 KA relative to UGCAUGU
31 | B31 | 0.000632 KA relative to UGCAUGU
